# Data reported in a collection of fitness landscapes (doi:10.1126/science.1257360).
# Some of the results follow.
# B1: PhoQ; a variant is named by its letters at X, in order, P23837 (parent)
# chain: MKKLLRLFFPLSLRVRFLLATAAVVLVLSLAYGMVALIGYSVSFDKTTFRLLRGESNLFYTLAKWENNKLHVELPENIDKQSPTMTLIYDENGQLLWAQRDVPWLMKMIQPDWLKSNGFHEIEADVNDTSLLLSGDHSIQQQLQEVREDDDDAEMTHSVAVNVYPATSRMPKLTIVVVDTIPVELKSSYMVWSWFIYVLSANLLLVIPLLWVAAWWSLRPIEALAKEVRELEEHNRELLNPATTRELTSLVRNLNRLLKSERERYDKYRTTLTDLTHSLKTPLXXLQXXLRSLRSEKMSVSDAEPVMLEQISRISQQIGYYLHRASMRGGTLLSRELHPVAPLLDNLTSALNKVYQRKGVNISLDISPEISFVGEQNDFVEVMGNVLDNACKYCLEFVEISARQTDEHLYIVVEDDGPGIPLSKREVIFDRGQRVDTLRPGQGVGLAVAREITEQYEGKIVAGESMLGGARMEVIFGRQHSAPKDE
# Variants of: B1
# Assay: enrichment ratio after two sorts for PhoP signalling (ratio (wild type AVST 3.29)); higher = more functional
# Settings: with PhoP (E. coli)
row,Variant,enrichment ratio
1,WGGL,≤ 0.25
2,YMCD,≤ 0.25
3,MPQD,≤ 0.25
4,ARSE,≤ 0.25
5,PVDE,≤ 0.25
6,AQLY,9.1
7,MGWH,5.63
8,KNLG,≤ 0.25
9,ETVD,≤ 0.25
10,PANW,≤ 0.25
11,GWWW,≤ 0.25
12,ESAL,≤ 0.25
13,RLYD,≤ 0.25
14,SHPV,≤ 0.25
15,WHMM,≤ 0.25
16,EFIR,≤ 0.25
17,GLNR,≤ 0.25
18,LWMP,≤ 0.25
19,FNYW,≤ 0.25
20,SKFV,≤ 0.25
21,EIHP,≤ 0.25
22,RYFL,≤ 0.25
23,TKIT,1.06
24,DVDQ,≤ 0.25
25,HDIC,≤ 0.25

row,Variant,enrichment ratio
1,LAMS,≤ 0.25
2,RCQI,≤ 0.25
3,PFDY,≤ 0.25
4,SRML,4.3
5,RHSP,≤ 0.25
6,GPNG,≤ 0.25
7,IFCL,≤ 0.25
8,HFGQ,≤ 0.25
9,LWEW,≤ 0.25
10,ICMH,≤ 0.25
11,HTLI,0.942
12,KFCY,≤ 0.25
13,IIPT,≤ 0.25
14,SHTD,≤ 0.25
15,TCKA,≤ 0.25
16,NNCC,≤ 0.25
17,YLLI,≤ 0.25
18,HLMF,≤ 0.25
19,PILY,≤ 0.25
20,FLQG,≤ 0.25
21,RHRG,≤ 0.25
22,DSAK,≤ 0.25
23,GIPE,≤ 0.25
24,DLQK,≤ 0.25
25,LTVE,≤ 0.25

row,Variant,enrichment ratio
1,TKAW,≤ 0.25
2,IAVW,≤ 0.25
3,YKCL,0.709
4,YPQS,≤ 0.25
5,DLFV,≤ 0.25
6,LWLN,≤ 0.25
7,KIPF,≤ 0.25
8,VHQF,≤ 0.25
9,FVYW,≤ 0.25
10,MNMN,≤ 0.25
11,RWWF,≤ 0.25
12,THPN,≤ 0.25
13,QPSM,≤ 0.25
14,VYRQ,≤ 0.25
15,SQKV,≤ 0.25
16,YRQY,1.38
17,ACCH,8.53
18,FALH,5.48
19,VMVF,≤ 0.25
20,IPAI,≤ 0.25
21,FCPG,≤ 0.25
22,TIFM,≤ 0.25
23,VFDR,≤ 0.25
24,PTGM,≤ 0.25
25,KIIP,≤ 0.25

row,Variant,enrichment ratio
1,RLRI,≤ 0.25
2,MQVF,1.6
3,GLVV,≤ 0.25
4,QVKT,≤ 0.25
5,QHTM,≤ 0.25
6,LRLA,≤ 0.25
7,MAIP,≤ 0.25
8,DQME,≤ 0.25
9,QPMH,≤ 0.25
10,ATRS,≤ 0.25
11,EKVW,≤ 0.25
12,HIVP,≤ 0.25
13,VMQL,≤ 0.25
14,RKTS,≤ 0.25
15,FLVV,≤ 0.25
16,AFKM,≤ 0.25
17,RFSG,≤ 0.25
18,PWYM,≤ 0.25
19,HWHP,≤ 0.25
20,FHKK,≤ 0.25
21,PLLQ,≤ 0.25
22,NHLC,≤ 0.25
23,SSCP,≤ 0.25
24,LYPR,0.371
25,RLFE,≤ 0.25

row,Variant,enrichment ratio
1,EESP,≤ 0.25
2,IYYM,≤ 0.25
3,WKPM,≤ 0.25
4,DINF,≤ 0.25
5,NPFQ,≤ 0.25
6,FHGY,≤ 0.25
7,PNWM,≤ 0.25
8,YFFL,≤ 0.25
9,PTKP,≤ 0.25
10,PPVI,≤ 0.25
11,AAVS,≤ 0.25
12,NNWC,≤ 0.25
13,TYSR,≤ 0.25
14,DNGW,≤ 0.25
15,RFFN,≤ 0.25
16,LGPL,≤ 0.25
17,MLEV,≤ 0.25
18,PMAM,≤ 0.25
19,ENHP,≤ 0.25
20,VMLF,≤ 0.25
21,LHMQ,≤ 0.25
22,DTHY,≤ 0.25
23,LKPY,≤ 0.25
24,MHYE,≤ 0.25
25,NYTN,≤ 0.25

row,Variant,enrichment ratio
1,MVSD,≤ 0.25
2,NTGA,≤ 0.25
3,NCTW,≤ 0.25
4,TKLL,16.2
5,DYFW,≤ 0.25
6,LNFL,≤ 0.25
7,LMLQ,≤ 0.25
8,FHQC,≤ 0.25
9,YLSV,0.444
10,TVDY,≤ 0.25
11,FNLG,1.92
12,ARSR,≤ 0.25
13,DSHW,≤ 0.25
14,KTVE,≤ 0.25
15,SNPT,≤ 0.25
16,MMAA,1.87
17,PKTQ,≤ 0.25
18,GIIV,3.44
19,FDVV,≤ 0.25
20,ANGA,≤ 0.25
21,QAAP,≤ 0.25
22,CVFY,≤ 0.25
23,GIIN,≤ 0.25
24,TFLI,0.996
25,FKPP,≤ 0.25

row,Variant,enrichment ratio
1,ETYI,≤ 0.25
2,YQLG,7
3,HDYS,≤ 0.25
4,ERFC,≤ 0.25
5,IRCY,≤ 0.25
6,QVTF,≤ 0.25
7,TQWE,11.1
8,DENI,≤ 0.25
9,HIPC,≤ 0.25
10,AYSL,≤ 0.25
11,YAHV,≤ 0.25
12,VYDT,≤ 0.25
13,AFCY,≤ 0.25
14,FFEY,≤ 0.25
15,DMTR,≤ 0.25
16,GQSL,≤ 0.25
17,TTCA,9.39
18,HSID,≤ 0.25
19,YHPN,≤ 0.25
20,QKGN,≤ 0.25
21,MNPR,≤ 0.25
22,LCVS,≤ 0.25
23,PWRH,≤ 0.25
24,KSML,≤ 0.25
25,IQAP,≤ 0.25

row,Variant,enrichment ratio
1,QDNA,≤ 0.25
2,DSSE,≤ 0.25
3,GMPK,≤ 0.25
4,VSEK,≤ 0.25
5,HNLN,≤ 0.25
6,LAAH,≤ 0.25
7,DHLI,≤ 0.25
8,PSIS,≤ 0.25
9,TTDK,1.85
10,PCLD,≤ 0.25
11,NQMG,≤ 0.25
12,SVLY,0.677
13,GGHV,≤ 0.25
14,HQWW,≤ 0.25
15,DFCQ,≤ 0.25
16,NNVI,≤ 0.25
17,VSRK,≤ 0.25
18,LHYR,≤ 0.25
19,DQLC,≤ 0.25
20,EKQI,≤ 0.25
